{
  "source": "PubChem BioAssay AID1508642",
  "about": "(National Center for Advancing Translational Sciences (NCATS), 2021)",
  "note": "Out of some 43,000 compounds screened, about 200 (0.47%) were called active. Inconclusive results (about 12%) are left out. The call rests on the fitted dose curve; in most records, active means well fitted cell-killing curve with a large enough effect; inconclusive means small, poorly fitted or top-dose-only effect, or effect the other way; inactive means flat fitted curve, though single readings scatter. Some of the results follow. On the % scale 0 is the no-effect control and ±100 the full control effect.",
  "data": [
    {"assay": "Cell viability qHTS assay in S16 Pmp22-F2sN cells; further: nearly all actives have a fitted effect of over 65% in size", "details": "S16 Pmp22-F2sN Schwann cells (luciferase reporters placed in the Pmp22 gene) viability, CellTiter-Glo, 24 h; series mostly up to 57.5 µM; activity change, negative = cytotoxicity: at the top concentration", "in_short": "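S16 Schwann cells carrying the Pmp22-F2sN reporter, seeded in 1536-well format, were exposed to library compounds for 24 h at 37C. Viability was read as CellTiter-Glo luminescence after 15 min at room temperature.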", "values": [
      {"compound": "Cc1ccc(C)c(S(=O)(=O)c2nnn3c2nc(NCc2ccc4c(c2)OCO4)c2sccc23)c1", "activity change, negative = cytotoxicity": "inactive: -4.01%"},
      {"compound": "CN(C)c1ccc(NC(=O)Cn2c(SCc3ccccc3F)nc3cccnc32)cc1", "activity change, negative = cytotoxicity": "inactive: -1.39%"},
      {"compound": "C=Cc1ccc(Cn2c(=O)n(-c3cccc(C)c3)c(=O)c3c2c2cc(C)ccc2n3C)cc1", "activity change, negative = cytotoxicity": "inactive: 12.3%"},
      {"compound": "Cc1ccc(S(=O)(=O)c2c(C)nn(-c3ccccc3)c2OC(=O)c2ccccc2F)cc1", "activity change, negative = cytotoxicity": "inactive: 0.353%"},
      {"compound": "O=C(Nc1ccc2c(c1)N(C1CCCC1)C(=O)c1ccccc1S2)c1ccc(F)cc1", "activity change, negative = cytotoxicity": "inactive: -12.5%"},
      {"compound": "O=S(=O)(c1cccc(Cl)c1)c1nnn2c1nc(NC1CCCCCC1)c1sccc12", "activity change, negative = cytotoxicity": "inactive: -5.96%"},
      {"compound": "CCOc1ccc(CCNC(=O)c2ccc3nc(CC)c(CC)nc3c2)cc1", "activity change, negative = cytotoxicity": "inactive: -9.18%"},
      {"compound": "Fc1ccc(CNc2nc3ccc(Cl)cc3n3nnnc23)cc1", "activity change, negative = cytotoxicity": "inactive: -1.81%"},
      {"compound": "COc1cccc(-n2c(=O)c3sc4ccccc4c3n(CC(=O)Nc3cccc(Cl)c3)c2=O)c1", "activity change, negative = cytotoxicity": "inactive: 22.2%"},
      {"compound": "CCOc1ccc(OCC(=O)Nc2c(C(=O)Nc3ccc(C)cc3)oc3ccccc23)cc1", "activity change, negative = cytotoxicity": "inactive: 2.03%"},
      {"compound": "CSc1nn(Cc2ccc(Br)cc2)c(N(C(C)=O)C(C)=O)c1S(=O)(=O)c1ccccc1", "activity change, negative = cytotoxicity": "inactive: 4.93%"},
      {"compound": "CCn1c(CN2CCOCC2)nc2cc(NC(=O)c3cc(OC)c(OC)c(OC)c3)ccc21", "activity change, negative = cytotoxicity": "inactive: -8.69%"},
      {"compound": "CCc1ccccc1NC(=O)C1CCCN(c2nnc(-n3c(C)ccc3C)s2)C1", "note": "(configuration not stated)", "activity change, negative = cytotoxicity": "inactive: -12.1%"},
      {"compound": "CCCCSCCCNC(=O)C1CCC(CNS(=O)(=O)c2ccccc2)CC1", "note": "(configuration not stated)", "activity change, negative = cytotoxicity": "inactive: 5.71%"},
      {"compound": "CC1CCN(C(=O)Cn2ncc3c4ccccc4n(Cc4ccc(Cl)cc4)c3c2=O)CC1", "activity change, negative = cytotoxicity": "inactive: -5.4%"},
      {"compound": "COc1ccc(-c2cc(C(=O)NCc3ccccc3)c3c(-c4ccccc4)[nH]nc3n2)cc1", "activity change, negative = cytotoxicity": "inactive: -1.23%"},
      {"compound": "COc1ccccc1N1CCN(C(=O)Cc2c(C(=O)O)c(C)cn2C)CC1", "activity change, negative = cytotoxicity": "inactive: 9.22%"},
      {"compound": "COc1ccc(CCNC(=O)C(=O)NCC(c2ccco2)S(=O)(=O)c2ccccc2)cc1OC", "note": "(configuration not stated)", "activity change, negative = cytotoxicity": "inactive: 0.181%"},
      {"compound": "COc1ccc(CCNC(=O)CS(=O)Cc2nc(-c3ccc(C)cc3)oc2C)c(OC)c1", "note": "(configuration not stated)", "activity change, negative = cytotoxicity": "inactive: -9.03%"},
      {"compound": "CCc1cccc(C)c1NC(=O)CSc1nnc(N)s1", "activity change, negative = cytotoxicity": "inactive: 3.6%"},
      {"compound": "CCOc1ccccc1NS(=O)(=O)c1cnc(N)nc1", "activity change, negative = cytotoxicity": "inactive: 1.59%"},
      {"compound": "Cc1ccccc1N1CCN(S(=O)(=O)c2nnc(NC(=O)c3ccc(Cl)cc3)s2)CC1", "activity change, negative = cytotoxicity": "inactive: -1.46%"},
      {"compound": "COc1ccc(-n2c(SCc3ccccc3F)nc3c([nH]c4ccccc43)c2=O)cc1", "activity change, negative = cytotoxicity": "inactive: 20.9%"},
      {"compound": "O=C(Cn1cc(S(=O)(=O)Cc2ccc(F)cc2)c2ccccc21)NCc1ccccc1Cl", "activity change, negative = cytotoxicity": "inactive: -7.24%"},
      {"compound": "O=C(NCCCc1nc2ccccc2n1Cc1ccc(Cl)cc1)c1ccco1", "activity change, negative = cytotoxicity": "inactive: -17%"},
      {"compound": "Cc1ccccc1CSc1nnc2[nH]c(=O)cc(C)n12", "activity change, negative = cytotoxicity": "inactive: -1.76%"},
      {"compound": "Cc1oc2ncn(CC(C)C)c(=O)c2c1C(=O)NCCCN(Cc1ccccc1)C(C)C", "activity change, negative = cytotoxicity": "inactive: 10.5%"}
    ]}
  ]
}
